Source: the BET-seq Pho4 binding data (Le et al. 2018)
The list shows a part of the results. Values were computed here from the reads of four pooled replicates and scatter widely.

target: T1, Pho4 (S. cerevisiae) (UniProt P07270); test: relative binding free energy (BET-seq); higher = weaker binding; details: reference: library average
T1 sequence: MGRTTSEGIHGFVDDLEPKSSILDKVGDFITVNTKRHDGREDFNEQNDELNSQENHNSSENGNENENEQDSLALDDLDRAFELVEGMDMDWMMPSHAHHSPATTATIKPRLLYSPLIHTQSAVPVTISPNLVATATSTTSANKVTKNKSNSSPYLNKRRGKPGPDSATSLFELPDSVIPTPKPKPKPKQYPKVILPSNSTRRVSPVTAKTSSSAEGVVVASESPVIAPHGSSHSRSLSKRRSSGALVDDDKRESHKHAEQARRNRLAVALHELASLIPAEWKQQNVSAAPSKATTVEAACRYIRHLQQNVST

| Sequence | relative binding free energy |
| --- | --- |
| ATGGGCACGTGGCGGC | -0.21 kcal/mol |
| ATAGTCACGTGAATTG | 0.22 kcal/mol |
| TTGTTCACGTGATGGA | 0.36 kcal/mol |
| CTTTTCACGTGCTGGG | 0.22 kcal/mol |
| CTCAGCACGTGGGTGT | -0.21 kcal/mol |
| AGGCTCACGTGGGATG | 0.1 kcal/mol |
| GTTGACACGTGTCGGT | 0.02 kcal/mol |
| GATAGCACGTGGGAGA | -0.16 kcal/mol |
| TTGTTCACGTGAATTA | 0.33 kcal/mol |
| TTGAACACGTGCGGGT | 0 kcal/mol |
| GAGGGCACGTGCGTCG | -0.03 kcal/mol |
| TTTTCCACGTGGGTGG | -0.03 kcal/mol |
| GGTTCCACGTGAGTGG | 0.23 kcal/mol |
| GACGTCACGTGAGGTT | 0.31 kcal/mol |
| TGAGGCACGTGGGGCG | -0.19 kcal/mol |
| AAAAGCACGTGGTTGG | -0.03 kcal/mol |
| GTTTCCACGTGTCGGG | 0.02 kcal/mol |
| TTCAGCACGTGTTACT | 0.03 kcal/mol |
| TAGTTCACGTGGTGCA | 0.06 kcal/mol |
| ACTAGCACGTGGGTGG | -0.28 kcal/mol |
| GGCTGCACGTGGTTAG | -0.08 kcal/mol |
| GTAAGCACGTGTCTGT | -0.06 kcal/mol |
| GGCGGCACGTGAGTGT | 0.19 kcal/mol |

| Sequence | relative binding free energy |
| --- | --- |
| GGGATCACGTGTGATG | 0.32 kcal/mol |
| TCGTACACGTGTAGGG | 0.03 kcal/mol |
| AGTGACACGTGGGTTT | -0.17 kcal/mol |
| TGTGACACGTGGCGGG | -0.03 kcal/mol |
| TTAAACACGTGTCGTT | 0.04 kcal/mol |
| GGGAGCACGTGCGGAA | -0.07 kcal/mol |
| GAATGCACGTGGTAGG | -0.05 kcal/mol |
| CTGTTCACGTGTTGTT | 0.26 kcal/mol |
| AGGATCACGTGGTGTC | 0.01 kcal/mol |
| TTAGACACGTGATTAT | 0.07 kcal/mol |
| TGTTTCACGTGTGTCC | 0.2 kcal/mol |
| GTGAGCACGTGGAGTT | 0.1 kcal/mol |
| TGCAGCACGTGGGGCA | -0.25 kcal/mol |
| GAGCGCACGTGCGGGG | -0.21 kcal/mol |
| CGGGTCACGTGAGGAT | 0.32 kcal/mol |
| GCCTTCACGTGTTTTG | 0.33 kcal/mol |
| GACTGCACGTGAGTTG | 0.34 kcal/mol |
| AGGGGCACGTGTACGA | 0.04 kcal/mol |
| TTTATCACGTGAGGAC | 0.24 kcal/mol |
| AGTTTCACGTGGTTAA | 0.17 kcal/mol |
| TAATGCACGTGATGGA | 0.11 kcal/mol |
| AATTTCACGTGCGTTA | 0.16 kcal/mol |
| GCGTTCACGTGATATG | 0.27 kcal/mol |

| Sequence | relative binding free energy |
| --- | --- |
| TTAACCACGTGTTTGG | -0.12 kcal/mol |
| GTGCTCACGTGGTAAG | 0.17 kcal/mol |
| GTTATCACGTGCAGGT | 0.14 kcal/mol |
| TTCTACACGTGTTGTG | 0.06 kcal/mol |
| CGGATCACGTGTGGTG | 0.22 kcal/mol |
| CGTGTCACGTGGTCAT | 0.01 kcal/mol |
| GGTCGCACGTGGTGCT | -0.1 kcal/mol |
| GCTGGCACGTGGTAGA | -0.18 kcal/mol |
| AATGGCACGTGGCGGG | -0.18 kcal/mol |
| CTTGTCACGTGGGAAG | -0.04 kcal/mol |
| CAGGGCACGTGTGGAA | 0.05 kcal/mol |
| ATACGCACGTGTAGGG | -0.08 kcal/mol |
| CTGGTCACGTGATGGA | 0.19 kcal/mol |
| GTGTACACGTGGTCTA | -0.12 kcal/mol |
| GGCTTCACGTGTGTTA | 0.32 kcal/mol |
| TCGTACACGTGGTGGC | -0.01 kcal/mol |
| AGTGACACGTGAGGTA | 0.16 kcal/mol |
| ATAAGCACGTGTTAAT | -0.11 kcal/mol |
| AATGGCACGTGGTAGC | -0.12 kcal/mol |
| GCGATCACGTGTTAGG | 0.26 kcal/mol |
| GGACGCACGTGGGTTT | -0.19 kcal/mol |
| TGTGCCACGTGTTGGG | -0.13 kcal/mol |
| AGTTTCACGTGATTGA | 0.39 kcal/mol |

| Sequence | relative binding free energy |
| --- | --- |
| TGGGGCACGTGGGGTC | -0.15 kcal/mol |
| GTTGTCACGTGGTTAA | 0.08 kcal/mol |
| TTGTTCACGTGACGGT | 0.45 kcal/mol |
| TAATGCACGTGGTGGC | -0.04 kcal/mol |
| GCCCTCACGTGGGGGG | -0.01 kcal/mol |
| ATATTCACGTGTGGTC | 0.29 kcal/mol |
| GCGGTCACGTGGATGA | 0.16 kcal/mol |
| ATGTACACGTGTGTGA | 0.1 kcal/mol |
| CGTTACACGTGTAGAG | 0.02 kcal/mol |
| GAAGGCACGTGGCGGT | -0.15 kcal/mol |
| GCCGGCACGTGGTTGG | -0.14 kcal/mol |
| CGTCTCACGTGGGTGT | 0.01 kcal/mol |
| GTGGGCACGTGGTTAA | -0.01 kcal/mol |
| CTTGGCACGTGCTAGG | -0.1 kcal/mol |
| TTGGGCACGTGTTTCA | -0.1 kcal/mol |
| GAAGTCACGTGAGCGT | 0.3 kcal/mol |
| GGTCACACGTGTATGT | 0.16 kcal/mol |
| AGGTGCACGTGAGTTA | 0.17 kcal/mol |
| TATAGCACGTGGGTAA | -0.22 kcal/mol |
| GTGGGCACGTGGAACG | 0.04 kcal/mol |
| CTTGTCACGTGGCGAG | -0.05 kcal/mol |
| TATTGCACGTGACGGT | 0.14 kcal/mol |
| GAGGGCACGTGAAAGG | 0.22 kcal/mol |

| Sequence | relative binding free energy |
| --- | --- |
| TTTATCACGTGCTTGT | 0 kcal/mol |
| TTGACCACGTGGCTGG | 0.06 kcal/mol |
| GTAGGCACGTGGTAGG | -0.14 kcal/mol |
| GGCAGCACGTGATTGG | 0.09 kcal/mol |
| GGTTACACGTGAAAGG | 0.49 kcal/mol |
| CAGTTCACGTGGGTGG | 0.18 kcal/mol |
| CTGTTCACGTGTAGAG | 0.25 kcal/mol |
| GGTGTCACGTGCGTTT | 0.11 kcal/mol |
| GGTAGCACGTGGAGTC | -0.02 kcal/mol |
| CGAAGCACGTGTGTGT | -0.07 kcal/mol |
| AATGACACGTGGTCGT | 0.09 kcal/mol |
| ATGTTCACGTGCCTTG | 0.25 kcal/mol |
| GGAGTCACGTGGTAGC | 0.25 kcal/mol |
| GAGGCCACGTGGAAGG | 0.14 kcal/mol |
| TAACGCACGTGGAGGT | -0.25 kcal/mol |
| TTTGGCACGTGCCGTA | -0.14 kcal/mol |
| GTCGTCACGTGCTGGG | 0.06 kcal/mol |
| GTTTGCACGTGGAGTT | 0.03 kcal/mol |
| TGGGTCACGTGGTATC | 0.09 kcal/mol |
| TTTCGCACGTGGGTCG | -0.19 kcal/mol |
| GCAGGCACGTGGGCTT | -0.15 kcal/mol |
| AATTGCACGTGTTAAG | 0.04 kcal/mol |
| GTGCTCACGTGGACTG | 0.25 kcal/mol |
